From the supplement of paper PMC4967469

Columns and labels:
Assay in all cases: Viability of human cancer cell lines after 72 h of drug (GDSC screen)
[1] = compound: COc1cc(Nc2c(C#N)cnc3cc(OCCCN4CCN(C)CC4)c(OC)cc23)c(Cl)cc1Cl [Bosutinib]; conditions: top dose 2 µM
Method: (§1)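 Human cancer cell lines in 384-well plates, medium with 10% serum, drug for 72 h over a 256-fold dose range (nine 2-fold or five 4-fold steps up to the top dose). Adherent lines were fixed and stained with the nucleic acid dye Syto60, suspension lines read with resazurin; signal relative to control wells, capped at 0 and 100%. One two-parameter sigmoid per drug and line, fitted in a mixed model over all curves with the slope shared within a line.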

[2] = compound: Cc1ccc(C(=O)Nc2cccc(C(F)(F)F)c2)cc1Nc1nc(-c2cccnc2)nc2c1cnn2C [NVP-BHG712]; conditions: top dose 10.24 µM; top dose inferred
Method: as §1

[3] = compound: O=C(O)CNC(=O)c1c(O)c2ccccc2n(Cc2ccccc2)c1=O [IOX2]; conditions: top dose 0.1 µM; top dose inferred
Method: as §1

Cell Line | AUC [1] | AUC [2] | pIC50 [2] | AUC [3] | pIC50 [3] | pIC50 [1]
ACHN (kidney, adherent) | 0.711 | 0.908 | < 4.99 | 0.979 | < 7.00 | 
QGP-1 (pancreas, adherent) | 0.919 | 0.764 | 5.21 | 0.959 | < 7.00 | < 5.70
RCH-ACV (B-cell leukaemia, suspension) | 0.834 |  |  | 0.991 | < 7.00 | 6.00
CL-34 (large intestine, adherent) | 0.977 |  |  | 0.984 | < 7.00 | < 5.70
PWR-1E (prostate, adherent) | 0.917 |  |  | 0.97 | < 7.00 | < 5.70
CADO-ES1 (Ewing sarcoma, suspension) | 0.984 | 0.988 | < 4.99 | 0.976 | < 7.00 | < 5.70
KMS-11 (myeloma, suspension) | 0.988 | 0.867 | 5.15 | 0.988 | < 7.00 | < 5.70
SF268 (glioma, adherent) | 0.865 | 0.892 | < 4.99 | 0.976 | < 7.00 | < 5.70
ESO26 (oesophagus, adherent) | 0.931 | 0.888 | < 4.99 | 0.988 | < 7.00 | < 5.70
VMRC-LCD (lung adenocarcinoma, adherent) | 0.99 |  |  | 0.992 | < 7.00 | < 5.70
NCI-N87 (stomach, adherent) | 0.887 |  |  | 0.955 | < 7.00 | < 5.70
U-266 (myeloma, semi-adherent) |  |  |  | 0.981 | < 7.00 | 
COR-L303 (small cell lung carcinoma, suspension) |  | 0.847 | 5.14 |  |  | 
MDA-MB-231 (breast, adherent) | 0.971 | 0.907 | < 4.99 | 0.983 | < 7.00 | < 5.70
MM1S (myeloma, suspension) | 0.927 |  |  |  |  | < 5.70
KNS-62 (lung squamous cell carcinoma, adherent) | 0.933 |  |  | 0.975 | < 7.00 | < 5.70
NCI-H835 (lung carcinoid, suspension) | 0.99 |  |  | 0.99 | < 7.00 | < 5.70
SF539 (glioma, adherent) | 0.877 | 0.943 | < 4.99 | 0.978 | < 7.00 | 5.78
RCC-AB (kidney, adherent) | 0.92 | 0.868 | < 4.99 | 0.973 | < 7.00 | < 5.70
RCC-JW (kidney, adherent) | 0.906 | 0.944 | < 4.99 | 0.973 | < 7.00 | < 5.70

Cell Line | AUC [1] | AUC [2] | pIC50 [2] | AUC [3] | pIC50 [3] | pIC50 [1]
SNU-C5 (large intestine, adherent) | 0.806 | 0.934 | < 4.99 | 0.97 | < 7.00 | 5.94
OCI-LY7 (B-cell lymphoma, suspension) | 0.629 |  |  | 0.997 | < 7.00 | 6.59
D-566MG (glioma, adherent) | 0.849 | 0.921 | < 4.99 | 0.982 | < 7.00 | 5.83
SK-MEL-31 (melanoma, adherent) | 0.985 |  |  | 0.976 | < 7.00 | < 5.70
RCC-MF (kidney, adherent) | 0.878 | 0.724 | 5.47 | 0.967 | < 7.00 | < 5.70
NCI-H1341 (small cell lung carcinoma, suspension) | 0.992 |  |  | 0.991 | < 7.00 | < 5.70
A2780 (ovary, semi-adherent) | 0.967 | 0.815 | 5.23 | 0.983 | < 7.00 | < 5.70
TC-YIK (cervix, suspension) | 0.986 |  |  | 0.988 | < 7.00 | < 5.70
SNU-407 (large intestine, adherent) | 0.828 | 0.58 | 5.96 | 0.981 | < 7.00 | 5.82
SK-MEL-5 (melanoma, adherent) | 0.888 | 0.983 | < 4.99 | 0.981 | < 7.00 | < 5.70
SW620 (large intestine, adherent) | 0.98 | 0.904 | < 4.99 | 0.989 | < 7.00 | < 5.70
CHP-134 (neuroblastoma, suspension) |  | 0.872 | < 4.99 |  |  | 
RCC-ER (kidney, adherent) | 0.917 | 0.986 | < 4.99 | 0.889 | < 7.00 | < 5.70
SW1116 (large intestine, adherent) |  | 0.986 | < 4.99 | 0.984 | < 7.00 | 
NCC010 (kidney, adherent) | 0.932 |  |  | 0.969 | < 7.00 | < 5.70
THP-1 (acute myeloid leukaemia, suspension) |  | 0.821 | 5.29 | 0.99 | < 7.00 | 
MCF7 (breast, adherent) | 0.983 | 0.98 | < 4.99 | 0.985 | < 7.00 | < 5.70
OV-56 (ovary, adherent) | 0.972 | 0.972 | < 4.99 | 0.988 | < 7.00 | < 5.70
ZR-75-30 (breast, adherent) | 0.936 |  |  | 0.969 | < 7.00 | < 5.70

pIC50: −log10 of the molar value. The IC50 comes from the fitted curve, where viability falls to half of the control; a fit beyond the top or the lowest dose is shown as a bound at that dose. AUC, from the same fit, is the share of area under the viability curve across the 256-fold dose range: 1 means no effect, lower means more sensitive. For some of these results: The top dose, if marked as inferred, is not printed in the source and was worked back from the curve model.
